The results in this text go back to US20220348657A1 (Five Prime, published 2022).

Holding throughout (experiment): cell-based or functional assay
Assay [1] addresses T1, CD28 expressed on the surface of TCR/CD3 Effector Cells (Promega cat #J129A) (UniProt P10747 19-220, limits assumed).
The target of assay [2] is T1, CD28 expressed on the surface of …. This is another data set of the same source.
For assay [3] the target is unchanged. The source holds these as a separate data set.
For assay [4] the target is unchanged. The source holds these as a separate data set.

B1: CD80 ECD-Fc fusion protein (Human CD80 ECD Human Fc IgG1 WT) (Fc fusion)
chain: VIHVTKEVKEVATLSCGHNVSVEELAQTRIYWQKEKKMVLTMMSGDMNIWPEYKNRTIFDITNNLSIVILALRPSDEGTYECVVLKYEKDAFKREHLAEVTLSVKADFPTPSISDFEIPTSNIRRIICSTSGGFPEPHLSWLENGEELNAINTTVSQDPETELYAVSSKLDFNMTTNHSFMCLIKYGHLRVNQTFNWNTTKQEHFPDN[gap - human IgG1 Fc with changes]
Turning to B1, in assay [1], the “C (EC50); M1 activator cells cultured 1 week” value was determined as 0.0507 µg/mL, the “C (EC50); M1 activator cells cultured 3 weeks” value came to 0.0505 µg/mL and the “C (EC50); M1 activator cells cultured 4 weeks” value amounted to 0.0514 µg/mL. In assay [2], the “C (EC50); activator cells sorted by OKT3: High” value worked out at 0.0059 µg/mL, the “C (EC50); activator cells sorted by OKT3: Low” value worked out at 0.00476 µg/mL, the “C (EC50); activator cells sorted by OKT3: Medium” value is 0.00462 µg/mL and the “C (EC50); activator cells sorted by OKT3: Pool” value came out at 0.00531 µg/mL. Besides, in assay [3], the “C (EC50); M1 activator cells, 20 K cells per well” value amounted to 0.022 µg/mL; the “C (EC50); M1 activator cells, 40 K cells per well” value worked out at 0.051 µg/mL; the “C (EC50); M1 activator cells, 60 K cells per well” value came out at 0.065 µg/mL; the “C (EC50); M1 activator cells, 80 K cells per well” value was found to be 0.082 µg/mL. In assay [3], the “D/A (fold response); M1 activator cells, 20 K cells per well” value was determined as 6.2; the “D/A (fold response); M1 activator cells, 40 K cells per well” value came to 5.9; the “D/A (fold response); M1 activator cells, 60 K cells per well” value was 6; the “D/A (fold response); M1 activator cells, 80 K cells per well” value was 6.6. Besides, in assay [4], the “C (EC50); activator cells sorted by CD64: High” value was 0.0267 µg/mL, the “C (EC50); activator cells sorted by CD64: Low” value is 0.0155 µg/mL, the “C (EC50); activator cells sorted by CD64: Medium” value was determined as 0.0136 µg/mL and the “C (EC50); activator cells sorted by CD64: Pool” value is 0.0129 µg/mL. In assay [4], the “D/A (fold response); activator cells sorted by CD64: High” value stood at 4.7, the “D/A (fold response); activator cells sorted by CD64: Low” value was 4.2, the “D/A (fold response); activator cells sorted by CD64: Medium” value came out at 5.2 and the “D/A (fold response); activator cells sorted by CD64: Pool” value was found to be 5.1.
